Among the data in the antibiotic and cytotoxicity screens of Wong et al. (2023) are cytotoxicity call and growth inhibition call values, retold here.

Structures are written as SMILES. Some of the results follow.

In experiment [1] the test system is HSkMC (human skeletal muscle cells). As to the kind of experiment: cytotoxicity call (relative viability < 0.9). As to conditions: 10 µM.
Experiment [2] concerns HepG2. As to the kind of experiment: cytotoxicity call (relative viability < 0.9). As to conditions: 10 µM.
Experiment [3] has as its system S. aureus RN4220. As to the kind of experiment: growth inhibition call (relative growth <= 0.2). Conditions: 50 µM.

Regarding `C[C@H]1CN([C@@H](C)CO)C(=O)c2c(c3ccccc3n2C)-c2ccccc2CO[C@H]1CN(C)Cc1cccc(C(F)(F)F)c1`, the cytotoxicity call in experiment [1] and in experiment [2] was “inactive” in each case. The growth inhibition call in experiment [3] was “inactive”.

As for `CC(C)NC(=O)Nc1ccc2c(c1)CC(=O)N([C@@H](C)CO)C[C@@H](C)[C@@H](CN(C)S(=O)(=O)c1ccccc1)O2`, the cytotoxicity call in experiment [1] and in experiment [2] was “inactive” in each case. Moreover, in experiment [3], the growth inhibition call is “inactive”.

Take `C[C@H](CO)N1C[C@H](C)[C@@H](CN(C)C(=O)Nc2cccc3ccccc23)OCCCC[C@H](C)Oc2ccc(NS(=O)(=O)c3cn(C)cn3)cc2C1=O`: the cytotoxicity call in experiment [1] and in experiment [2] was “inactive” each time. In experiment [3], the growth inhibition call was “inactive”.

As for `COc1ccc(S(=O)(=O)N(C)C[C@@H]2Oc3ccc(N(C)C)cc3CC(=O)N([C@@H](C)CO)C[C@H]2C)cc1`, the cytotoxicity call in experiment [1] and in experiment [2] was “inactive” each time. In addition, in experiment [3], the growth inhibition call is “inactive”.

Turning to `Nc1ncn(C2OC(CO)C(O)C2O)c(=O)n1` (stereo unspecified), the cytotoxicity call in experiment [1] was “inactive”. In addition, the cytotoxicity call in experiment [2] is “active”. Moreover, the growth inhibition call in experiment [3] was “inactive”.

Consider `C[C@@H]1CN([C@@H](C)CO)C(=O)Cc2cc(NS(=O)(=O)c3cn(C)cn3)ccc2O[C@@H]1CN(C)S(C)(=O)=O`, for which the cytotoxicity call in experiment [1] and in experiment [2] was “inactive” each time. In experiment [3], the growth inhibition call is “inactive”.

For `CC[C@H](C)C[C@H](C)CCCCCCCCC(=O)N[C@H]1C[C@@H](O)[C@@H](NCCN)NC(=O)[C@@H]2[C@@H](O)CCN2C(=O)[C@H]([C@H](O)CCN)NC(=O)[C@H]([C@H](O)[C@@H](O)c2ccc(O)cc2)NC(=O)[C@@H]2C[C@@H](O)CN2C(=O)[C@H]([C@@H](C)O)NC1=O`, the cytotoxicity call in experiment [1] and in experiment [2] was “inactive” in each case. The growth inhibition call in experiment [3] is “inactive”.

On to `O=C(N[C@H](c1ccc2ccccc2n1)c1cccs1)C1CCN(Cc2cccc(C(F)(F)F)c2)CC1`, for which the cytotoxicity call in experiment [1] and in experiment [2] was “inactive” each time. Besides, the growth inhibition call in experiment [3] was “inactive”.

Turning to `C[C@H](CO)N1C[C@H](C)[C@@H](CN(C)C(=O)Cc2ccncc2)Oc2cc(C#CC3(O)CCCC3)ccc2S1(=O)=O`, the cytotoxicity call in experiment [1] and in experiment [2] was “inactive” each time. The growth inhibition call in experiment [3] is “inactive”.

As to `O=C(C[C@@H]1C=C[C@H](NC(=O)CN2CCOCC2)[C@@H](CO)O1)NCc1cccc(F)c1`, the cytotoxicity call in experiment [1] and in experiment [2] was “inactive” in each case. Also, in experiment [3], the growth inhibition call is “inactive”.

As for `O=C(CS)NCCCCCCNC(=O)[C@@H]1C[C@@H]2C(=O)NCC(=O)N2[C@@H]1c1ccc(O)cc1`, the cytotoxicity call in experiment [1] and in experiment [2] was “inactive” throughout. In experiment [3], the growth inhibition call was “inactive”.

With `Nc1nc(=O)c2nc(C(=O)O)cnc2[nH]1`, the cytotoxicity call in experiment [1] and in experiment [2] was “inactive” each time. In addition, the growth inhibition call in experiment [3] was “inactive”.

On to `CC(=O)N1CC(=O)N(c2cnn(C)c2)C[C@]12CCN(C(=O)c1cnc(C)cn1)C2`, for which the cytotoxicity call in experiment [1] and in experiment [2] was “inactive” throughout. The growth inhibition call in experiment [3] was “inactive”.

Take `CC(C)[Si](C#C[Si](C(C)C)(C(C)C)C(C)C)(O[C@H](c1ccccc1)c1cn(Cc2ccccc2)nn1)C(C)C`: the cytotoxicity call in experiment [1] and in experiment [2] was “inactive” throughout. For the same compound, the growth inhibition call in experiment [3] is “inactive”.

On to `CCS(=O)(=O)Nc1ccc2c(c1)C(=O)N(C)[C@@H]1CC[C@@H](CC(=O)N3CCN(C)CC3)O[C@H]1CO2`, for which the cytotoxicity call in experiment [1] and in experiment [2] was “inactive” each time. Also, the growth inhibition call in experiment [3] is “inactive”.

In the case of `COc1ccc(NC(=O)N(C)C[C@@H]2Oc3c(NS(=O)(=O)c4cn(C)cn4)cccc3C(=O)N([C@@H](C)CO)C[C@@H]2C)cc1`, the cytotoxicity call in experiment [1] and in experiment [2] was “inactive” throughout. Further, the growth inhibition call in experiment [3] was “inactive”.

Consider `O=C1C=C2CC3(O)COc4cc(O)ccc4C3=C2C=C1O` (stereo unspecified), for which the cytotoxicity call in experiment [1] and in experiment [2] was “inactive” in each case. Besides, the growth inhibition call in experiment [3] is “inactive”.

For the compound `C[C@@H]1CN([C@H](C)CO)C(=O)c2cc(C#CC3(O)CCCC3)cnc2O[C@H]1CN(C)C(=O)CN(C)C`, the cytotoxicity call in experiment [1] and in experiment [2] was “inactive” throughout. The growth inhibition call in experiment [3] is “inactive”.

Regarding `Cc1ccc(S(=O)(=O)Nc2cccc3c2O[C@H](CN(C)CC2CC2)[C@@H](C)CN([C@@H](C)CO)C3=O)cc1`, the cytotoxicity call in experiment [1] and in experiment [2] was “inactive” each time. The growth inhibition call in experiment [3] was “inactive”.

In the case of `C[C@H](C(=O)N(C)C[C@@H]1OCc2ccccc2-c2c(n(C)c3ccccc23)C(=O)N([C@H](C)CO)C[C@@H]1C)c1ccccc1`, the cytotoxicity call in experiment [1] and in experiment [2] was “inactive” each time. The growth inhibition call in experiment [3] is “inactive”.

As for `Cc1ccc(S(=O)(=O)N(C)C[C@@H]2Oc3ccc(NC(=O)NC(C)C)cc3CC(=O)N([C@H](C)CO)C[C@@H]2C)cc1`, the cytotoxicity call in experiment [1] and in experiment [2] was “inactive” in each case. In addition, the growth inhibition call in experiment [3] was “inactive”.

In the case of `C[C@@H]1CN([C@H](C)CO)C(=O)Cc2cc(NC(=O)Cn3cnnn3)ccc2O[C@@H]1CN(C)Cc1ccc(Cl)c(Cl)c1`, the cytotoxicity call in experiment [1] and in experiment [2] was “inactive” each time. For the same compound, the growth inhibition call in experiment [3] is “inactive”.

In the case of `C[C@H]1CN([C@@H](C)CO)C(=O)CCCn2nncc2CO[C@@H]1CN(C)C(=O)Nc1ccc(C(F)(F)F)cc1`, the cytotoxicity call in experiment [1] and in experiment [2] was “inactive” in each case. The growth inhibition call in experiment [3] is “active”.

Regarding `CO[C@H]1CN(C)C(=O)c2ccc(NC(=O)C3CC3)cc2OC[C@@H](C)N(C(=O)Cc2ccccn2)C[C@H]1C`, the cytotoxicity call in experiment [1] and in experiment [2] was “inactive” throughout. The growth inhibition call in experiment [3] was “inactive”.

`COc1cc(/C=C/C(=O)OC[C@H]2O[C@@H](O[C@@H]3OC=C[C@H]4[C@H](O)[C@@H]5O[C@]5(CO)[C@@H]34)[C@H](O)[C@@H](O)[C@@H]2O)ccc1O`: the cytotoxicity call in experiment [1] and in experiment [2] was “inactive” each time. Further, in experiment [3], the growth inhibition call is “inactive”.

With `COc1ccc(S(=O)(=O)N(C)C[C@@H]2OCCCC[C@H](C)Oc3ccc(NS(=O)(=O)c4cn(C)cn4)cc3C(=O)N([C@@H](C)CO)C[C@H]2C)cc1`, the cytotoxicity call in experiment [1] and in experiment [2] was “inactive” throughout. Also, the growth inhibition call in experiment [3] is “inactive”.

As to `Cc1cc(C(=O)Nc2cccc3c2O[C@@H](CN(C)Cc2ccccc2)[C@@H](C)CN([C@H](C)CO)C3=O)n(C)n1`, the cytotoxicity call in experiment [1] and in experiment [2] was “inactive” in each case. Also, in experiment [3], the growth inhibition call was “inactive”.
